Results on 47 compounds are retold here after the supplement of paper PMC10600219.

Each structure is given as a SMILES string. Structures can show the parent of a compound that is named as a salt. In all, about 2,800 compounds were measured (“cell viability relative to vehicle”: median about 1.1, lowest 2% from about 0.19 on). The list shows a part of the results.

The subject of the assay is NCI-H2228 parental. Put plainly: cell viability relative to vehicle (fraction of vehicle); NCI-H2228 is an ALK-positive lung cancer line and DTP means drug-tolerant persister; higher = less growth inhibition. The note with it: 100 nM; treatment time 6 days. The gist of the method: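 Drug-tolerant persister NCI-H2228 cells, produced by 13 days in 1000 nM of a targeted drug, and their parental counterparts were seeded into 384-well plates and, the following day, given the 3114-agent TargetMol anti-cancer compound library at 100 nM or DMSO vehicle. After 6 days, the CellTiter-Glo 3D Cell Viability Assay was used to read ATP. Each entry reports viability compared with vehicle-treated cells.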
Regarding `O=C1O[C@H]([C@@H](O)CO)C([O-])=C1O.[Na+]` [Sodium ascorbate], the cell viability amounted to 1.02. As for `Cc1c(O)c(C)c2c(c1O)C(=O)C[C@@H](c1ccc(O)cc1)O2` [Farrerol], the cell viability came to 1. The same measure for `CC(C)=CCC1=C(O)C(=O)c2ccccc2C1=O` [Lapachol]: 0.936.

Take `Nc1nc(=O)n([C@@H]2CS[C@H](CO)O2)cc1F` [Emtricitabine]: the cell viability is 1.13. Turning to `COc1ccc(Cl)cc1C(=O)NCCc1ccc(S(=O)(=O)NC(=O)NC2CCCCC2)cc1` [Glyburide], the cell viability is 1.08.

`CC#C[C@]1(O)CC[C@H]2[C@@H]3CCC4=CC(=O)CCC4=C3[C@@H](c3ccc(N(C)C)cc3)C[C@@]21C` [Mifepristone]: the cell viability turned out to be 1.08.

For `COC(=O)N[C@@H](C)CNc1nccc(-c2cn(C(C)C)nc2-c2cc(Cl)cc(NS(C)(=O)=O)c2F)n1` [Encorafenib], the cell viability was determined as 1.13. Regarding `CC[C@@H]1C(=O)N(C)c2cnc(Nc3ccc(C(=O)N[C@H]4CC[C@H](N5CCN(CC6CC6)CC5)CC4)cc3OC)nc2N1C(C)C` [Volasertib], the cell viability came to 0.192. With `Cc1nc(C(=O)NCC(=O)O)c(O)c2ccc(Oc3ccccc3)cc12` [Roxadustat] the figure was 0.938. The same measure for `COc1cccc2c1C(=O)c1c(O)c3c(c(O)c1C2=O)C[C@@](O)(C(=O)CO)C[C@@H]3O[C@H]1C[C@H](N)[C@H](O[C@@H]2CCCCO2)[C@H](C)O1` [Pirarubicin]: 0.22; for `COc1cc2c(NC3CCN(C(C)C)CC3)nc(N3CCC(F)(F)CC3)nc2cc1OCCCN1CCCC1`: 1.06; for `CCCCCCNC(=O)n1cc(F)c(=O)[nH]c1=O` [Carmofur]: 0.957. With `CC(O)c1cc(C(=O)N[C@@H](C)Cn2ccc(-c3ccc(C#N)c(Cl)c3)n2)n[nH]1` (some centres not stated) [Darolutamide] the figure was 1.2. On to `CCC[C@@H]1C[C@@H](C(=O)N[C@@H]([C@H]2O[C@H](SC)[C@H](OP(=O)(O)O)[C@@H](O)[C@H]2O)[C@H](C)Cl)N(C)C1` [Clindamycin phosphate], for which the cell viability came to 1.01. The same measure for `CC(C)[C@H](N)C(=O)OCCOCn1cnc2c(=O)nc(N)[nH]c21` [Valacyclovir hydrochloride]: 1.08; for `O=C(Nc1cnn2ccc(N3CCC[C@@H]3c3cc(F)ccc3F)nc12)N1CC[C@H](O)C1` [Larotrectinib sulfate]: 0.9.

On to `CN1CCN2c3ncccc3Cc3ccccc3C2C1` (configuration not stated) [Mirtazapine], for which the cell viability worked out at 1.05.

Consider `CC(C)(O)[C@@H]1CC[C@](C)([C@H]2[C@@H](O)C[C@@]3(C)[C@@H]4C[C@H](O)[C@H]5C(C)(C)[C@@H](O)CC[C@@]56C[C@@]46CC[C@]23C)O1` [Cycloastragenol], for which the cell viability came out at 1.12.

For `Cc1cc(C)nc(NS(=O)(=O)c2ccc(N)cc2)n1` [Sulfamethazine sodium salt], the cell viability amounted to 1.04.

On to `CCn1c(=O)c2c(nc(/C=C/c3ccc(OC)c(OC)c3)n2C)n(CC)c1=O` [Istradefylline], for which the cell viability worked out at 1.06. Consider `O=c1cc(-c2ccccc2)oc2ccccc12` [Flavone], for which the cell viability worked out at 1.12. With `C/C=C\c1ccc(OC)cc1` [cis-Anethol], the cell viability came to 1.09. The same measure for `CC1=NN(c2ccc(C)c(C)c2)C(=O)/C1=N\Nc1cccc(-c2cccc(C(=O)O)c2)c1O` [Eltrombopag Olamine]: 1.09. Consider `C[C@@H]1C/C=C/C=C/C=C/C=C/[C@H](O[C@@H]2O[C@H](C)[C@@H](O)[C@H](N)[C@@H]2O)C[C@@H]2O[C@](O)(C[C@@H](O)C[C@H]3O[C@@H]3/C=C/C(=O)O1)C[C@H](O)[C@H]2C(=O)O` [Pimaricin], for which the cell viability amounted to 1.15. The same measure for `CONC(=O)Nc1ccc(-c2sc3c(c2CN(C)Cc2ccccc2)c(=O)n(-c2ccccc2)c(=O)n3Cc2c(F)cccc2F)cc1` [Sufugolix]: 0.979; for `O=C(/C=C/c1cccc(S(=O)(=O)Nc2ccccc2)c1)NO` [Belinostat]: 0.851. For `CCC(Sc1nnc2c3ccccc3n(CC)c2n1)C(=O)Nc1ccccc1OC` (configuration not stated), the cell viability stood at 1.01. The same measure for `Cc1c(N)c(=O)n(-c2ccccc2)n1C` [4-Aminoantipyrine]: 1.08; for `CCN(CC)CCCC[C@H](NC(=O)[C@H](CC(C)C)NC(=O)[C@H](C)NC(=O)[C@H](Cc1ccccc1)NC(=O)c1ccc(C(C)(C)C)cc1)C(=O)N[C@@H](CO)C(=O)OC`: 1.02. The same measure for `OCC1OC(O)CC(O)C1O` [2-Deoxy-D-glucose]: 1.08; for `COc1cc2nccc(Oc3ccc(NC(=O)c4cn(C(C)C)c(=O)n(-c5ccc(F)cc5)c4=O)cc3F)c2cc1OC`: 0.941; for `Nc1nc2c(cnn2CCc2ccccc2)c2nc(-c3ccco3)nn12`: 1.04. The same measure for `CC(C)(C)c1cc(NC(=O)Nc2ccc(-c3cn4c(n3)sc3cc(OCCN5CCOCC5)ccc34)cc2)no1` [Quizartinib]: 0.968. `CN1CCN(c2ccc(-c3cccc(CN4CCOCC4)c3)cc2NC(=O)c2c[nH]c(=O)cc2C(F)(F)F)CC1`: the cell viability turned out to be 0.943. The same measure for `O=C(CCBr)N1CCN(C(=O)CCBr)CC1` [Pipobroman]: 1; for `CNC(=O)c1ccc(N2C(=S)N(c3ccc(C#N)c(C(F)(F)F)c3)C(=O)C2(C)C)cc1F` [Enzalutamide]: 1.09; for `N[C@H]1CONC1=O` [L-Cycloserine]: 1.11. Consider `CCCc1ccc(OCC(=O)N(Cc2nc(-c3cccnc3)no2)C(C)C)cc1`, for which the cell viability was determined as 1.1. With `CC(C)n1ncnc1-c1cn2c(n1)-c1ccc(O[C@@H](C)C(N)=O)cc1OCC2` the figure was 0.745; with `COc1cc2nc(N3CCN(C(=O)C4COc5ccccc5O4)CC3)nc(N)c2cc1OC` (configuration not stated) [Doxazosin mesylate], 1.09. As for `N#C/C(=C(/N)Sc1ccc(N)cc1)c1ccccc1C(F)(F)F`, the cell viability was determined as 0.959.

`CC(C)NC(=O)C1CCC(n2c(NC(=O)c3ccc(F)cc3)nc3ccc(CN4CCC(C(C)(C)O)CC4)cc32)CC1` (configuration not stated) [Belizatinib]: the cell viability was found to be 0.595. As for `NC[C@@](O)(c1ccc(Cl)cc1)c1ccc(-c2cn[nH]c2)cc1`, the cell viability came out at 0.912. Turning to `O=c1c(O)c(-c2ccc(O)cc2)oc2cc(O)cc(O)c12` [Kaempferol], the cell viability was 1.09. The same measure for `Cc1cc(C(C)(C)C)cc(C)c1CC1=NCCN1` [Xylometazoline hydrochloride]: 1.18.

For the compound `O=C(Nc1cnc(Cl)nc1)c1ccc(F)c(F)c1`, the cell viability amounted to 1.06. Consider `COC(=O)[C@H](CC(C)C)NC(=O)c1ccc(NC[C@@H](N)CS)cc1-c1cccc2ccccc12`, for which the cell viability was determined as 1.14.
